The results in this text go back to article PMC4336329 (PLoS ONE, 2015).

Out of some 310,000 compounds screened, about 14,000 (4.5%) showed an effect of 50% or more. Effects have a minus sign here. The list shows a part of the results.
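Note: peak tail current of the secondary pulse compared with the same well before compound.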

The target in this experiment is human ether-à-go-go-related gene (hERG) potassium channel (human, UniProt Q12809). Briefly: primary screen, population patch clamp on CHO cells stably expressing hERG.
human ether-à-go-go-related gene (hERG) potassium channel, sequence (Q12809 whole entry, looked up): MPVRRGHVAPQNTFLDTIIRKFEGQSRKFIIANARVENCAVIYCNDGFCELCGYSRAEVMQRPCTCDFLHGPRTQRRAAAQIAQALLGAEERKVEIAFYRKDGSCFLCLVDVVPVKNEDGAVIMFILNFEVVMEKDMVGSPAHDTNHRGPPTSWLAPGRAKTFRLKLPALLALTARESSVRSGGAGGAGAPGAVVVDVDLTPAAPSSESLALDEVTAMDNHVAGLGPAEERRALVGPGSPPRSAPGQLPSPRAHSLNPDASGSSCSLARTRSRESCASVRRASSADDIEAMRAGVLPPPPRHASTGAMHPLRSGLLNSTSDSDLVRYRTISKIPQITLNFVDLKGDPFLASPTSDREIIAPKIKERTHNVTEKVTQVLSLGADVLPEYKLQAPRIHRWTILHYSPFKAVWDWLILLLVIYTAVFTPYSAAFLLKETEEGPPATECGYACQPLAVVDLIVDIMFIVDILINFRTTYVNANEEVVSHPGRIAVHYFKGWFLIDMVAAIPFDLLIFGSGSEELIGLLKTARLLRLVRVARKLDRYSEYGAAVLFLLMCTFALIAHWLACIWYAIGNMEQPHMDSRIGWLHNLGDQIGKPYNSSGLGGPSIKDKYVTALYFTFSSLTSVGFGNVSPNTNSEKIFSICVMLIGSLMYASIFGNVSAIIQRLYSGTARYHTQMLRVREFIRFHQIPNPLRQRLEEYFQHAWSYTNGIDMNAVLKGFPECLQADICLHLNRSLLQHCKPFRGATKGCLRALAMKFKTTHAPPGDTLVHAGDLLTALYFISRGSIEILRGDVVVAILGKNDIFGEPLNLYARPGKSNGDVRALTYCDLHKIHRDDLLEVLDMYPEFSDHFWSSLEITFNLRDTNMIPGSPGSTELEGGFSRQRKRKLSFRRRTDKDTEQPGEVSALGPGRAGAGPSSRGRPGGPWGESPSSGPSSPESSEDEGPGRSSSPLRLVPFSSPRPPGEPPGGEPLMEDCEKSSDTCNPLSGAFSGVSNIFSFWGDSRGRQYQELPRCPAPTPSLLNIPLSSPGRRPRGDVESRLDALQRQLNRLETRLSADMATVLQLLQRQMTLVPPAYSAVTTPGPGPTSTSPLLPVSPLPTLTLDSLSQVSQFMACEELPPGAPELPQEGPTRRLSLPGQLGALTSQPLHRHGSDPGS
Regarding `CN(C)c1ccc(/C=C/C(=O)c2cc(Cl)ccc2O)cc1`, the “hERG current change (%, negative = inhibition) at 10uM” value was 6.87%.

Take `FC(F)(F)c1cccc(Sc2nc(-c3ccccc3)nnc2C(F)(F)F)c1`: the “hERG current change (%, negative = inhibition) at 10uM” value amounted to 10.2%. Under `CC(NC(=O)[C@H](C)NC(=O)c1ccco1)c1ccc(S(N)(=O)=O)cc1` (stereo partly shown) stands 18.9%; under `CCOc1ccccc1/C=C/c1nc2ccccc2[nH]c1=O`, 6.38%. Under `Cc1ccccc1-c1nc2sc(C)c(C)c2c(=O)o1` stands 17.7%; under `CCOc1cccc(-c2c(C(=O)N/N=C/c3ccoc3)nnn2-c2nonc2N)c1`, 16.8%. Under `Cc1ccc(NC(=O)c2cc(=O)[nH]c3ccccc23)cc1` stands 18.4%. Turning to `CC(C)(C)OC(=O)N1CCN(C(=O)c2[nH]cnc2C(=O)NCc2ccccc2)CC1`, the “hERG current change (%, negative = inhibition) at 10uM” value is -5.89%.

Turning to `COCCCn1c(SCC(=O)N2CCOCC2)nnc1-c1ccco1`, the “hERG current change (%, negative = inhibition) at 10uM” value worked out at 18.7%. Take `O=C(NCc1ccc(F)cc1)c1ccncc1`: the “hERG current change (%, negative = inhibition) at 10uM” value was 13.7%. Consider `COc1ccc(OC)c(NC(=O)C2CCN(S(C)(=O)=O)CC2)c1`, for which the “hERG current change (%, negative = inhibition) at 10uM” value came out at 17.7%. Turning to `O=C(COc1ccccc1)N1CCN(c2ccccc2)CC1`, the “hERG current change (%, negative = inhibition) at 10uM” value is recorded as -3.1%.

As for `COc1nc(Nc2cccc([N+](=O)[O-])c2)nc(OC)n1`, the “hERG current change (%, negative = inhibition) at 10uM” value is 4.39%. On to `Cc1ccc(C(=O)N/C(=C\c2ccc(-c3cc(Cl)ccc3Cl)o2)C(=O)NCc2cccnc2)cc1`, for which the “hERG current change (%, negative = inhibition) at 10uM” value is on record as 2.81%. As to `O=C(Nc1ccccc1)N(CCCN1CCOCC1)Cc1ccccc1F`, the “hERG current change (%, negative = inhibition) at 10uM” value is -20.6%.

With `CC(=O)Nc1ccc(NC(=O)CCC(=O)OCC(=O)c2ccc(C)c([N+](=O)[O-])c2)cc1`, the “hERG current change (%, negative = inhibition) at 10uM” value is recorded as 18.7%. For `Cc1cccc(-n2nnnc2SC(C)C(=O)NCCC2=CCCCC2)c1` (stereo not shown), the “hERG current change (%, negative = inhibition) at 10uM” value is -19.4%. In the case of `O=C1C(=O)N(CCN2CCOCC2)C(c2ccccn2)/C1=C(/O)c1ccc(F)cc1` (stereo not shown) it was -3.48%; in that of `Cc1cc(C)c(S(=O)(=O)c2cccc(Cl)c2)c(=O)[nH]1`, 8.07%; in that of `CC1CCCCC12NC(=S)N(c1ccccc1)N2` (stereo not shown), 6.81%.

Consider `Cc1nc2ccccc2c2oc(C(=O)N3CCC(N4CCCCC4)CC3)cc12`, for which the “hERG current change (%, negative = inhibition) at 10uM” value is -38.8%. In the case of `COc1ccc(N(CC(C)C)S(=O)(=O)c2nnc(NC(=O)CC(C)C)s2)cc1`, the “hERG current change (%, negative = inhibition) at 10uM” value was 23.5%. Take `CCCn1c(C)nnc1SCC(=O)NC1CCCCC1`: the “hERG current change (%, negative = inhibition) at 10uM” value is -2.31%. For `Cc1cc(=O)oc2cc(NC(=O)Cc3ccccc3[N+](=O)[O-])ccc12`, the “hERG current change (%, negative = inhibition) at 10uM” value is reported as 10%. Take `Cc1ccc(C(=O)C2=C(O)C(=O)N(c3ncccn3)C2c2ccccc2F)o1` (stereo not shown): the “hERG current change (%, negative = inhibition) at 10uM” value came out at 29%. In the case of `Cc1ccc(-c2nnn(CC(=O)N(Cc3ccccc3)C(C(=O)NC3CCCC3)c3ccncc3)n2)o1` (stereo not shown), the “hERG current change (%, negative = inhibition) at 10uM” value was -24.3%. In the case of `O=C(Nc1ccc2[nH]c(=O)[nH]c2c1)c1cc(F)c(F)cc1Cl` it was 20.4%; in that of `COCCCNc1nc2c(-c3cccc(C)c3)nnn2c2ccc(Cl)cc12`, 11.3%; in that of `COc1cc2c(c(OC)c1)C(=O)OC(C)CCCC(=O)CCCCC2` (stereo not shown), 19.7%. Under `CCOC(=O)c1c(C)[nH]c(N=Nc2ccc(OC)cc2)c1C` stands -0.496%; under `CCCCC(CC)CNC(=O)CCS(=O)(=O)c1cccc2nsnc12` (stereo not shown), -11.8%. As for `Cl.c1csc(CNc2ccc3c(c2)OCCO3)c1`, the “hERG current change (%, negative = inhibition) at 10uM” value is on record as -2.03%. With `CSCCC(NC(=O)c1ccccc1Br)C(=O)NNC(=O)c1csc(N2CCOCC2)n1` (stereo not shown), the “hERG current change (%, negative = inhibition) at 10uM” value is reported as -33.5%.

On to `CC1OC(OC2C(CO)OC(OC3C(CO)OC(O)C(O)C3O)C(O)C2O)C(O)C(O)C1N[C@@H]1C=C(CO)[C@@H](O)C(O)[C@H]1O` (stereo partly shown), for which the “hERG current change (%, negative = inhibition) at 10uM” value is listed as 22.8%. In the case of `COC(=O)c1cc(NS(=O)(=O)c2ccc(F)cc2)ccc1N1CCOCC1` it was 10.2%; in that of `Cc1nccc(-c2cc(-c3ccc(Cl)cc3Cl)no2)n1`, 4.77%. On to `Cc1cccc(NC(=O)[C@@H]2CCCN2C(=O)OC(C)(C)C)c1`, for which the “hERG current change (%, negative = inhibition) at 10uM” value was 12.3%. Under `O=S(=O)(Nc1ccc2c(c1)nc1n2CCOC1)c1ccc(Cl)cc1` stands -22.7%; under `Cc1cc(C)cc(NC(=O)CSc2nnc(Cc3cccn3C)n2-c2ccc(F)cc2)c1`, -3.46%. In the case of `Cc1cc(C)n(-c2ccc(C(=O)Nc3sccc3C(N)=O)cc2)n1` it was -31.1%. In the case of `O=c1cnnc(SCCc2ccccc2)[nH]1` it was -5.69%; in that of `Cc1cc(C(F)F)n2nc(C(=O)Nc3ccc(S(=O)(=O)N4CCCCCC4)cc3)nc2n1`, -4.72%; in that of `COc1ccccc1NC(=O)OC(C)c1ccc(Cl)cc1` (stereo not shown), -2.08%.

Regarding `Cc1ccc(-n2c(C)cc(C(=O)COC(=O)c3c(C)noc3C)c2C)cc1`, the “hERG current change (%, negative = inhibition) at 10uM” value is on record as -13.2%. Under `Cc1cccc(NC(=O)C2C3C=CC(O3)C2C(=O)O)c1` (stereo not shown) stands 10.8%. Under `CCN(CC)C(=O)C1=C(C)Nc2ncnn2C1c1cccnc1` (stereo not shown) stands -0.306%. For `COc1ccc(C)cc1Nc1nnc(C)c(=O)[nH]1`, the “hERG current change (%, negative = inhibition) at 10uM” value is 15.4%. Under `O=C(Nc1ccc(S(=O)(=O)Nc2ccccc2F)cc1)N1CCCCC1` stands 4.84%; under `CCc1ccc(NC(=O)Nc2ccon2)cc1`, 7.75%; under `O=C(NC1CCCCCC1)c1ccc(=O)n(Cc2ccccc2)n1`, -7.88%. As to `Cc1cccc(C)c1NC(=S)N1CCOCC1`, the “hERG current change (%, negative = inhibition) at 10uM” value is 9.99%.

For `CSc1ccccc1C(=O)NCCOc1cccc(C)c1`, the “hERG current change (%, negative = inhibition) at 10uM” value is 17.7%. In the case of `Fc1cccc(Nc2ncnc3sccc23)c1` it was 12%. Consider `Cn1c(CCN2CCCCCC2)nc2cc(NC(=O)Nc3ccccc3)ccc21`, for which the “hERG current change (%, negative = inhibition) at 10uM” value was -35.7%. Under `Cc1cc(C)c(C(=O)CN2CCOCC2)c(C)c1.Cl` stands 5.49%.

Regarding `NS(=O)(=O)c1ccc(NC(=O)C2C3C=CC(C3)C2C(=O)O)cc1` (stereo not shown), the “hERG current change (%, negative = inhibition) at 10uM” value is 18.3%. In the case of `O=P(O)(CCc1ccccc1)CN1CCCCC1`, the “hERG current change (%, negative = inhibition) at 10uM” value was found to be 10.9%. `O=C(c1cccc(S(=O)(=O)N2CCCC2)c1)N(Cc1ccco1)C1CCS(=O)(=O)C1` (stereo not shown): the “hERG current change (%, negative = inhibition) at 10uM” value is given as -21.8%. On to `COCCN(CCOC)C(=O)c1ccc(NS(=O)(=O)c2ccc3[nH]c(=O)[nH]c3c2)cc1`, for which the “hERG current change (%, negative = inhibition) at 10uM” value was 36.3%. Under `CC1COc2ccccc2N1C(=O)c1ccccc1Cl` (stereo not shown) stands -3.55%; under `CCCCCCC(=O)c1c([O-])n(-c2ccc(OC)cc2)c(=O)[nH]c1=O.C[NH+](C)C`, 3.22%; under `O=C(CCC(=O)N1CCCCC1)Nc1ccc(Cl)c(Cl)c1`, 0.606%. Under `COc1ccccc1OCc1nc2ccccc2s1` stands 0.459%; under `Cc1cc(NC(=O)C23CCC(C)(C(=O)O2)C3(C)C)no1` (stereo not shown), 12%; under `COc1ccc(-c2csc(N(C)C(=O)c3cccs3)n2)cc1`, -0.276%. Under `CCN(CC)c1ccc2cc(C(=O)NCc3ccc(F)cc3)c(=N)oc2c1` stands -23.4%; under `Cc1nnc(SCC(=O)Nc2sc3c(c2C(N)=O)CCC(C)C3)[nH]c1=O` (stereo not shown), 4.52%; under `CN(C)C(=O)N1CCC(C(=O)NCc2ccccc2Cl)CC1`, -9.13%. Take `Cc1nc(Cl)sc1C(=O)O`: the “hERG current change (%, negative = inhibition) at 10uM” value turned out to be 11.1%.

In the case of `CCOc1cc(N2CCOCC2)c(OCC)cc1NC(=O)Cc1ccccc1`, the “hERG current change (%, negative = inhibition) at 10uM” value is reported as -12.6%.

In the case of `CC(=O)O[C@H](CC(=O)O)C[N+](C)(C)C.[Cl-]`, the “hERG current change (%, negative = inhibition) at 10uM” value was found to be 5.92%. Consider `O=C(c1ccccc1)c1ccc(C(=O)N2CCN(c3ccccc3)CC2)cc1`, for which the “hERG current change (%, negative = inhibition) at 10uM” value is recorded as -36.7%. Consider `CCOc1ccccc1OCCC(=O)N1CCN(S(=O)(=O)c2ccccc2[N+](=O)[O-])CC1`, for which the “hERG current change (%, negative = inhibition) at 10uM” value is -34.5%. Under `Cc1ccc(-n2c(=O)[nH]c3c(C(N)=O)nc(CC(C)C)nc32)cc1` stands 4.8%. On to `Cc1c(Cl)ccc2c(C(=O)O)cc(-c3ccccc3)nc12`, for which the “hERG current change (%, negative = inhibition) at 10uM” value is listed as -1.96%. In the case of `Cc1ccc2cc(C(c3nnnn3C3CCCC3)N(Cc3ccco3)Cc3cccs3)c(=O)[nH]c2c1` (stereo not shown), the “hERG current change (%, negative = inhibition) at 10uM” value is reported as -2.43%. Under `COC(=O)Cc1ccc(NC(=S)NCC(C)C)cc1` stands 3.74%; under `COc1ccc(Cl)cc1NC(=S)NNC(=O)C1(C)CC1(Cl)Cl` (stereo not shown), 9.7%. As to `O=C(N=C1SC2CS(=O)(=O)CC2N1c1ccc(Cl)cc1Cl)C1CC1` (stereo not shown), the “hERG current change (%, negative = inhibition) at 10uM” value is -7.48%.

Consider `CC(C)C1Cc2ccccc2-c2[nH]c(=S)[nH]c(=O)c21` (stereo not shown), for which the “hERG current change (%, negative = inhibition) at 10uM” value is on record as 13%. Under `CCOc1ccc(CN2CCNC(=O)C2CC(=O)NCCC2=CCCCC2)cc1` (stereo not shown) stands -49.6%. For the compound `Cc1ccc(Nc2nc(=O)c3cccnc3s2)c(Br)c1`, the “hERG current change (%, negative = inhibition) at 10uM” value worked out at 3.27%. Take `CC(=O)Nc1ccc(C(=O)NNS(=O)(=O)c2ccc(C)cc2)cc1`: the “hERG current change (%, negative = inhibition) at 10uM” value was determined as 21.8%. In the case of `Cc1ccc(CNc2ccc3c(c2)ncn3C(C)(C)C)cc1` it was -72.5%. Under `CCc1cc2ccccc2nc1SCC(=O)NC1CCCC1` stands -7.76%; under `O=C(c1cc2cc(Br)ccc2oc1=O)N1CCN(c2ccccn2)CC1`, -25.4%; under `CCOP(C)(=O)C1(C(=O)OCc2ccccc2)CC1` (stereo not shown), 22%. In the case of `COC(=O)C(C)Sc1nnc(Cc2cc(=O)[nH]c(=O)[nH]2)n1-c1ccc(Cl)cc1` (stereo not shown) it was 1.64%. As for `CC(C)(C)C(=O)NC(Nc1cccc2cccnc12)C(Cl)(Cl)Cl` (stereo not shown), the “hERG current change (%, negative = inhibition) at 10uM” value is -1.6%. In the case of `CCOC(=O)C1CCN(C(=O)c2cccnc2Oc2ccc(Cl)cc2)CC1` it was -45.2%; in that of `COc1cc(OC)cc(C(=O)OCC(=O)Nc2sccc2C(N)=O)c1`, 10.8%.
